# According to PubChem BioAssay AID686979 (National Center for Advancing Translational Sciences (NCATS), 2013):
# Screen size: about 420,000 compounds; about 50,000 (12%) were called active. This list was built around the results that the source calls inconclusive (neither active nor inactive); the mix of calls is not that of the screen. Calls follow the shape of the dose curve; as a rule, active = well fitted inhibition curve with a large enough effect; inconclusive = small, poorly fitted or top-dose-only effect; inactive = flat fitted curve, though single readings scatter. No potency is given beside an inconclusive call; the fits are too rough.
# Assay: qHTS for Inhibitors of human tyrosyl-DNA phosphodiesterase 1 (TDP1): qHTS in cells in presence of CPT; also: nearly all actives have a fitted effect of over 55% in size
# Conditions: chicken DT40 Tdp1-/-;hTDP1 cells + 20 nM CPT, ATP luminescence, 48 h; activity change, negative = growth inhibition: at 46.2 µM (top of the series)
# Method in brief: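 Cell growth measured by CellTiter-Glo luminescence after a minimum 48 h, 37 C compound exposure with 20 nM CPT in Tdp1-knockout DT40 cells stably expressing hTDP1, seeded 400/well; qHTS titration format.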
# % is scaled to controls: 0 for no effect and ±100 for the full control effect; potency is read from the fitted curve at half-maximal effect; tags tell the direction and shape of the fitted curve.
SMILES,Potency,"activity change, negative = growth inhibition"
N#Cc1ccc(-c2ccc(OCC(O)Cn3nnc4ccccc43)cc2)cc1 (stereo not given),"inconclusive [inhibitor, single point]",–
O=C(c1cccc2ccccc12)N1CCN(c2ccccc2F)CC1,"inconclusive [inhibitor, single point]",–
O=C(NCc1ccco1)C1Cc2c(-c3ccccc3Oc3ccccc3)ccnc2O1 (stereo not given),"inconclusive [inhibitor, single point]",–
Cn1c(SCC(=O)NC2CCCC2)nnc1-c1ccccn1,–,inactive: 12.4%
COc1cc(/C=C/C(=O)N2CCc3ccccc3C2)cc(OC)c1OC,"inconclusive [inhibitor, single point]",–
O=C(Nc1ccc2c(c1)CCC2)c1cnn2c1NC(=C1CC1)C=C2C(F)F,"inconclusive [inhibitor, single point]",–
O=C(CN1C(=O)C2C3C=CC(C3)C2C1=O)NCCc1ccccc1 (stereo not given),active: 11.6 µM,–
COc1ccc(OC)c(C(=O)COC(=O)c2[nH]c(C)c(C(C)=O)c2C)c1,"inconclusive [inhibitor, single point]",–
Cc1ccc(C(=O)O/N=C/c2c(Cl)n(C)c3ccccc23)cc1,"inconclusive [inhibitor, single point]",–
Cc1ccc(-c2ocnc2C(=O)Nc2nc(C)cs2)cc1,–,inactive: -10.4%
CC#CCN1c2ccccc2[C@]23C[C@@H](C(=O)OC)N(C(=O)c4ccc(Br)cc4)C2=NC(C(=O)OC)=C(C(=O)OC)[C@H]13,active: 20.6 µM,–
CC(C)CC(C)NNC(=O)c1cc2ccccc2[nH]1 (stereo not given),–,inactive: 5.55%
O=C(CCN1C(=O)/C(=C/c2ccc(F)cc2)SC1=S)NC1C=CS(=O)(=O)C1 (stereo not given),active: 13 µM,–
CC(C)=CCCC(C)N(C=O)C(C)CCC=C(C)C (stereo not given),"inconclusive [inhibitor, single point]",–
COc1c(OC(C)=O)ccc(/C=C/c2ccc3cccc(OC)c3n2)c1[N+](=O)[O-],active: 25.9 µM,–
COc1ccc2c(C(=O)CN(C)C3CCCCC3)c[nH]c2c1,"inconclusive [inhibitor, single point]",–
CCOc1ccccc1C(=O)Nc1nnc(COC)s1,"inconclusive [inhibitor, single point]",–
O=C(N/N=C/c1ccnc2ccccc12)c1ccccc1O,active: 3.26 µM,–
COC(=O)c1cnc(Nc2nc(C(N)c3ccccc3Cl)cs2)nc1C(F)(F)F (stereo not given),"inconclusive [inhibitor, single point]",–
CCC[n+]1c(C)sc2c3c(ccc21)CCCC3,active: 1.84 µM,–
